Experimental data: PubChem BioAssay AID1347073 (National Center for Advancing Translational Sciences (NCATS), 2019)
Out of some 45,000 compounds screened, about 200 (0.44%) were called active. Not shown: some 7% with an inconclusive outcome. Calls follow the shape of the dose curve; as a rule, active = well fitted activation curve with a large enough effect; inconclusive = small, poorly fitted or top-dose-only effect; inactive = no such curve, though single readings can be large or run the other way. This is one part of the list.

Assay: qHTS of TDP-43 Inhibitors: NCGC Sytravon Library Screen; also: 0% is about no effect; nearly all actives have a fitted effect of over 55% in size
Conditions: yeast TDP-43 toxicity rescue, BacTiter-Glo growth, 24 h; series mostly up to 46.1 µM; growth rescue (activation): at the top concentration
Summary of the method: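 TDP-43-expressing yeast, pregrown in raffinose, seeded at OD600 0.02 in galactose medium with compound for 24 hr at 30 deg C. Growth read by BacTiter-Glo luminescence, so rescue of toxicity appears as activation.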

| SMILES | growth rescue (activation) |
| --- | --- |
| CS(=O)(=O)c1ccc2nc(NC(=O)CN3CCC(Cc4ccccc4)CC3)sc2c1 | inactive: -6.74% |
| CCOC(=O)c1c(C)[nH]c(C(=O)COC(=O)[C@H](C)NC(=O)c2ccccc2Cl)c1C | inactive: 25.5% |
| CC(=O)N1CCc2cc(S(=O)(=O)NC(CC(C)C)C(=O)Nc3cc(C(=O)O)ccc3C)ccc21 (stereo unspecified) | inactive: 23.9% |
| CCCCC(O)(CCCC)C(=O)NNc1ccccc1 | inactive: 8.68% |
| CCOC(=O)c1c(NC(=O)C2C3C=CC(C3)C2(C)C(=O)O)sc2c1CCCC2 (stereo unspecified) | inactive: 17.2% |
| Cc1cc(N)ccc1NC(=O)CN1CCOCC1 | inactive: 4.74% |
| Cc1sc2nc(C(C)C)nc(SCC(=O)N3CCOCC3)c2c1C | inactive: 35.4% |
| O=c1[nH]c2c(Br)cnc([N+](=O)[O-])c2[nH]1 | inactive: -3.21% |
| CCOc1ccc(-c2noc([C@@H]3O[C@H](CO)[C@@H](O)[C@H]3O)n2)cc1 | inactive: 3.35% |
| COC(=O)c1ccc(CN2CCCC(C(=O)Nc3cccc(-n4cnnn4)c3)C2)cc1 (stereo unspecified) | inactive: 14.2% |
| Cc1ccc(S(=O)(=O)N2CCOCC2)cc1NC(=O)CNc1ccccc1N1CCCC1=O | inactive: 16.2% |
| CC(C)c1nnc(NC(=O)C2CCN(C(=O)Nc3ccc(Cl)cc3)CC2)s1 | inactive: 0.792% |
| O=c1oc2ccccc2cc1-c1csc(Cc2nc(-c3ccc(Cl)cc3)cs2)n1 | inactive: 2.5% |
| O=C(COC(=O)c1ccc2ccccc2c1O)Nc1ccccc1 | inactive: 6.97% |
| CC[C@H](C)[C@H](NC(N)=O)C(=O)NCCc1ccc(OC)cc1 | inactive: 6.19% |
| Cc1ccc(-n2c(SCC(=O)N(C)C3CCS(=O)(=O)C3)nc3ccccc3c2=O)cc1 (stereo unspecified) | inactive: 10.7% |
| COc1ccc(CN(C)CC(O)COc2ccc(C(=O)c3ccccc3)cc2)c(OC)c1OC (stereo unspecified) | inactive: -0.344% |
| CCCCCCOc1ccc(C(CC(=O)O)C(N)=O)cc1 (stereo unspecified) | inactive: 12.3% |
| COc1ccccc1NC(=O)/C(=N/OCc1ccc(F)cc1)C(C)=O | inactive: 22.2% |
| CCC(CC)NCc1ccc2c(c1)c1ccccc1n2CC | inactive: -0.838% |
| O=C(/C=C/c1cn(-c2ccccc2)nc1-c1ccccc1)Nc1ccc(C(=O)O)cc1 | inactive: -17.2% |
| Cc1onc(-c2ccccc2)c1C(=O)N1CCOCC1 | inactive: -2.82% |

| SMILES | growth rescue (activation) |
| --- | --- |
| O=C(Nc1ncccn1)c1cc(-c2ccc(F)cc2)nc2ccccc12 | inactive: 6.76% |
| Cc1ccccc1/C=N/n1c(-c2cc(-c3ccccc3)n[nH]2)n[nH]c1=S | inactive: 12.6% |
| Oc1ccc2n[nH]nc2c1 | inactive: 4.54% |
| O=C(COc1ccc(Cl)cc1Cl)NNC(=O)c1cccnc1 | inactive: -0.607% |
| CC(C)=NNc1nc2c(c(=O)[nH]c(=O)n2C)n1CCc1ccccc1 | inactive: -11% |
| CS(=O)(=O)N1CCCC(C(=O)N2CCN(c3cccc(Cl)c3)CC2)C1 (stereo unspecified) | inactive: 13.9% |
| O=C(Nc1cccnc1Cl)c1cccs1 | inactive: 14.3% |
| Cc1ccc(N2C(=O)C3Sc4[nH]c(=O)sc4C(c4ccccc4)C3C2=O)cc1 (stereo unspecified) | inactive: -14.3% |
| Cc1cc(C)c(-c2csc(Cc3nc(-c4cc5ccccc5oc4=O)cs3)n2)cc1C | inactive: 5.78% |
| Nc1cccc2c(=O)c3ccccc3[nH]c12 | inactive: 1.55% |
| CC(=O)NC(c1cccc(F)c1)c1nc(-c2cc(F)cc(Cl)c2)cs1 (stereo unspecified) | inactive: 1.02% |
| CCc1nc2c(OCc3ccc(F)cc3)cccn2c1N(C)C(=O)c1ccc(C)cc1 | inactive: 6.6% |
| COc1cc(C)ccc1OCCOCCOc1cc(C)c(C)cc1Br | inactive: 2.97% |
| COc1ccc(CC(N)c2csc(NC(=O)Nc3cc(OC)ccc3OC)n2)cc1 (stereo unspecified) | inactive: 11.1% |
| COc1ccc(/C=c2/sc3nc(-c4ccccc4)c(-c4ccccc4)n3c2=O)cc1 | inactive: -4.06% |
| Cc1nn(CC(=O)N(CC(C)C)C2CCS(=O)(=O)C2)c(C)c1[N+](=O)[O-] (stereo unspecified) | inactive: 5.62% |
| O=C(NCc1ccc(F)cc1)C1(S(=O)(=O)c2ccc(Cl)cc2)CC1 | inactive: 3.57% |
| O=C(NCc1ccco1)c1cccc(S(=O)(=O)N2CCCC2)c1 | inactive: 15% |
| CCCS(=O)(=O)NC(=O)C1(C)CCN(C(=O)c2c(F)ccc(C)c2F)C1 (stereo unspecified) | inactive: -6.66% |
| COC(=O)CNC(=O)CSc1nnc(C)c(=O)[nH]1 | inactive: 9.44% |
| O=C(NCC(c1ccco1)N1CCCCC1)c1ccc([N+](=O)[O-])s1 (stereo unspecified) | inactive: 15.4% |
| COc1ccccc1C(=O)N1CCN(Cc2c[nH]c3ccccc23)CC1 | inactive: 0.031% |

| SMILES | growth rescue (activation) |
| --- | --- |
| O=C(c1cc(F)c(F)c(F)c1F)N1CCN(C(=O)C2CCCO2)CC1 (stereo unspecified) | inactive: 5.65% |
| CCC(C(=O)N1CCc2ccccc2C1)n1nc(C)n2c(cc3occc32)c1=O (stereo unspecified) | inactive: -12.1% |
| Cc1nnc(Nc2ccc(C(=O)O)cc2)[nH]c1=O | inactive: -5.94% |
| COc1ccc(C(C(=O)NC2CCCC2)N(C(=O)c2ccoc2C)c2ccc(C)c(C)c2)cc1 (stereo unspecified) | inactive: 1.01% |
| COC(=O)CSc1nc2c(c(-c3ccc(O)cc3)c1C#N)CCCC2 | inactive: -19.3% |
| CNC(=S)Nc1ccc2nc(C)oc2c1 | inactive: 8.47% |
| COc1ccc(C(=O)N2CCN(C(=O)COc3ccc(C)cc3)CC2)cc1OC | inactive: 2.51% |
| O=C(NCCc1ccccc1)C(=S)N1CCCCC1 | inactive: 12.5% |
| O=C(C[n+]1cccc(C(=O)N/N=C/c2cccc([N+](=O)[O-])c2)c1)c1ccccc1 | inactive: 14.4% |
| CCOC(=O)c1ccc(N2C(=O)Cc3ccccc3C2=O)cc1 | inactive: 3.39% |
| CNC(=O)c1ccc(Nc2nnc(-c3ccc(C)c(S(=O)(=O)NCC4CCCO4)c3)c3ccccc23)cc1 (stereo unspecified) | inactive: 0.492% |
| COCCNc1nc2cc(-c3ccsc3)sc2c(=O)n1C | inactive: 21.2% |
| CCN(CC(=O)Nc1ccc(C)c(F)c1)CC(=O)NC(C)(C)C | inactive: -3.6% |
| COc1cc(C(=O)Nc2ccc(S(=O)(=O)Nc3nccc(C)n3)cc2)c([N+](=O)[O-])cc1OC | inactive: -4.66% |
| Clc1ccc(C[n+]2cc(-c3ccccc3)n3c2CCC3)cc1Cl | inactive: -22.7% |
| CCOc1ccc(/C=C2\SC(=S)NC2=O)cc1OC | inactive: 5.58% |
| COc1ccc(C(O)c2nc(-c3cccc(NC(C)=O)c3)cs2)cc1 (stereo unspecified) | inactive: -1.05% |
| CCC(=O)OCCNc1cc(Sc2nc3ccccc3[nH]2)c2nonc2c1[N+](=O)[O-] | inactive: -21.4% |
| CCCc1nc(NCc2ccco2)c(C#N)c2c1COC(C)(C)C2 | inactive: -13% |
| COc1ccc(CCNC(=O)c2cc3c(=O)n4cccc(C)c4nc3s2)cc1OC | inactive: 0.974% |
| CCC1=NN2C(=N)/C(=C\c3ccc(SCc4ccco4)o3)C(=O)N=C2S1 | inactive: 12.7% |
| COc1cc(/C=N\NC(=O)CNC(=O)C(c2ccccc2)c2ccccc2)ccc1O | inactive: 11.7% |

| SMILES | growth rescue (activation) |
| --- | --- |
| O=C(c1cn(-c2ccccc2)nc1-c1ccccc1)N1CCN(c2ccccn2)CC1 | inactive: 14.9% |
| CCn1nc(C)c(CNC(=O)CCc2nnc(Cc3c[nH]c4ccccc34)o2)c1C | inactive: -6.13% |
| Cc1ccc(/C=C/C(=O)Nc2ccc(N(C)C)cc2)o1 | inactive: 0.323% |
| CN(C)c1ccc(NC(=O)Cc2ccccc2)c2ccccc12 | inactive: -0.035% |
| COC(=O)c1ccc(Cl)c(S(=O)(=O)N2CCCC2)c1 | inactive: 2.77% |
| N#CCCNc1c(Cl)cc(Cl)cc1C(=O)O | inactive: 0.384% |
| O=C(O)COc1cnc2ccccc2n1 | inactive: -25.2% |
| COc1ccc(CC(N)c2csc(NC(=O)Nc3ccccc3Cc3ccccc3)n2)cc1 (stereo unspecified) | inactive: 4.7% |
| Cc1ccc(-n2ncc3c(=O)[nH]c(SCC(=O)N4CC(=O)Nc5ccccc54)nc32)cc1 | inactive: 6.23% |
| CN(C)S(=O)(=O)c1ccc(Cl)c(C(=O)Nc2cccc3ncccc23)c1 | inactive: 8.92% |
| CC(=O)C1=C(O)C(=O)N(C)C1c1ccccc1[N+](=O)[O-] (stereo unspecified) | inactive: -13.3% |
| COC(=O)c1ccc2c(c1)C(=O)/C(=C/c1ccc(O)cc1)O2 | inactive: -13.7% |
| CCOC(=O)c1ccc(NC(=O)c2nsc3ccccc23)cc1 | inactive: 0.307% |
| Cc1ccccc1C(=O)NC=C1C(=O)OC(C)(C)OC1=O | inactive: -22.4% |
| NS(=O)(=O)c1ccc(Cl)c(S(N)(=O)=O)c1 | inactive: -2.43% |
| O=C(C1CCC(=O)N(C2CC2)C1)N1CCN(c2cccc(Cl)c2)CC1 (stereo unspecified) | inactive: 8.11% |
| Cc1cc(F)cc(-c2cc(C(=O)NCc3ccccn3)[nH]n2)c1 | inactive: 6.38% |
| CCN1C(=O)C2(C(C(=O)c3ccc(C)o3)=C(O)C(=O)N2CCCN(C)C)c2ccccc21 (stereo unspecified) | inactive: 2.57% |
| COc1ccc(-c2nc(NC(=O)c3nc4nccc(C)n4n3)sc2C)cc1 | inactive: 12.6% |
| N#Cc1ccc(C(=O)Nc2cccc(S(=O)(=O)NC3=NCCC3)c2)cc1 | inactive: 0.722% |
| CCNC(=O)C1(C)CCCN(Cc2ccc(Oc3ccccc3)cc2)C1 (stereo unspecified) | inactive: 12.6% |
| Cc1ccc(C)c(-n2c(N)c(C(N)=O)sc2=S)c1 | inactive: 13.7% |

| SMILES | growth rescue (activation) |
| --- | --- |
| COc1ccc(C(=O)N2CCc3cc(OC)c(OC)cc3C2c2ccc(OC)c(OC)c2)cc1 (stereo unspecified) | inactive: -2.68% |
| COc1ccc(C(=O)On2c(-c3ccc(Br)cc3)nc3ccccc3c2=O)cc1 | inactive: -29.4% |
| O=C(c1cccs1)N1CCN(Cc2ccccc2[N+](=O)[O-])CC1 | inactive: 2.38% |
| Cc1ccc(C(=O)Nc2cc3cc(Cl)ccc3oc2=O)cc1 | inactive: 9.53% |
| CCc1nc2c(OCc3ccc(F)cc3)cccn2c1N(C)C(=O)C(C)C | inactive: 2.1% |
| CC(OC(=O)c1cnc2ccccc2n1)c1ccccc1Cl (stereo unspecified) | inactive: 11.8% |
| COc1ccc(C(C(=O)NCc2ccccc2)N(C(=O)c2snc(C(N)=O)c2N)c2ccccc2OC)cc1 (stereo unspecified) | inactive: -28% |
| CCOC(=O)Cn1cc(/C=C(/C#N)C(=O)NC(C)C)c2ccccc21 | inactive: 10% |
| Cc1ccnc(SCC(=O)Nc2cccc(S(=O)(=O)N3CCOCC3)c2)n1 | inactive: -12.9% |
| CC1CCCCN1C(=O)CSc1nnc(-c2ccccc2O)o1 (stereo unspecified) | inactive: 37.5% |
| COCCN1CCN(C(=O)C2CCC(=O)N(CCc3ccc(Cl)cc3)C2)CC1 (stereo unspecified) | inactive: 5.71% |
| CCc1ccccc1-n1c(SCC(=O)N2CCCC2)nc2[nH]ncc2c1=O | inactive: -7.71% |
| COc1ccc(NS(=O)(=O)c2cccc(C(=O)N/N=C/c3ccc4c(c3)OCCO4)c2)cc1 | inactive: -5.99% |
| O=C(Nc1ccccc1N1CCOCC1)c1cccc(NS(=O)(=O)c2ccc(F)c(F)c2)c1 | inactive: -0.631% |
| COC(=O)C(CSCc1ccccc1)NC(=O)CSc1nc(N)cc(=O)[nH]1 (stereo unspecified) | inactive: 7.41% |
| COc1ccccc1NC(=O)c1cc([N+](=O)[O-])ccc1NCCN1C(=O)CCC1=O | inactive: 11.1% |
| CSc1ccccc1NC(=O)CN(c1ccccc1)S(=O)(=O)N(C)C | inactive: -9.71% |
| CC(C)(C)c1nnc2sc(SCC(O)=C(C#N)c3nc4ccccc4[nH]3)nn2c1=O | inactive: 2.04% |
